# Reference: PubChem BioAssay AID686979 (National Center for Advancing Translational Sciences (NCATS), 2013)
# Where “and” joins values, the source holds several entries; their conditions need not be identical. Equal entries are not always repeated. Among all 420,000 compounds or so, about 50,000 (12%) were called active. The inconclusive results got no clear call from the source; some entries with a clear call stand among them for comparison. Calls come from the whole dose curve; as a rule, active = well fitted inhibition curve with a large enough effect; inconclusive = small, poorly fitted or top-dose-only effect; inactive = flat fitted curve, though single readings scatter. A potency beside an inconclusive call is a rough fit, not a confirmed value.
# Experiment: qHTS for Inhibitors of human tyrosyl-DNA phosphodiesterase 1 (TDP1): qHTS in cells in presence of CPT; note: nearly all actives have a fitted effect of over 55% in size
# Conditions: chicken DT40 Tdp1-/-;hTDP1 cells + 20 nM CPT, ATP luminescence, 48 h; activity change, negative = growth inhibition: at 46.2 µM (top of the series)
# Method in brief: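 Chicken DT40 Tdp1-/- cells complemented with human TDP1, 400 cells/well, exposed to compounds plus 20 nM camptothecin for at least 48 h at 37 C; viability read as ATP content by CellTiter-Glo luminescence.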
# % is set by controls: 0 for no effect and ±100 for the full control effect; potency is the fitted concentration of half-maximal effect; tags give direction and shape of the fitted curve.
SMILES,Potency,"activity change, negative = growth inhibition"
O=C(N/N=C/c1ccc(O)cc1)c1cc(C23CC4CC(CC(C4)C2)C3)[nH]n1,"inconclusive: 29.1 µM [inhibitor, single point]",–
O=C1CCCN1c1cccc(Br)c1,inactive,–
CC1(C)OC(=O)C2=C(C[C@@H](C3CCCCC3)O[C@H]2c2ccccc2)O1,"inconclusive: 18.4 µM [inhibitor, single point]",–
COC(=O)c1ccc(N2C(=O)CC(Sc3n[nH]c(C)n3)C2=O)cc1 (configuration not stated),active: 2.06 µM,–
COc1cc(OC)c(N2CC(C(=O)NCCC3=CCCCC3)CC2=O)cc1Cl (configuration not stated),"inconclusive: 18.4 µM [inhibitor, single point]",–
COC(=O)c1cc(-c2ccccc2)sc1N,inactive,–
CC(C)Cc1ccc(S(=O)(=O)N2CCN(C(=O)c3ccco3)CC2)cc1,–,inconclusive: -34.7% [inhibitor]
CCn1c(SCc2ccc(Cl)cc2)nc2nc3c(cc2c1=O)CCCC3,"inconclusive: 29.1 µM [inhibitor, single point]",–
O=C(CN1CCN(C(=S)NC2CCCC2)CC1)Nc1ccc(Oc2ccccc2)cc1,"inconclusive: 18.4 µM [inhibitor, single point]",–
O=c1[nH]c(CSc2nc(-c3ccccc3)cs2)nc2ccccc12,"inconclusive: 16.4 µM [inhibitor, partial curve]",–
COc1ccc(-c2c(C)nc(N)nc2-c2ccc(OC)cc2O)cc1,inactive,–
CC(=O)O[C@H](CC(=O)O)C[N+](C)(C)C,inactive,–
O=c1c2ccccc2nc(/C=C/c2ccc(Br)cc2)n1CCCO,active: 23.1 µM,–
CCOC(=O)c1c(C)nc2sc3c(c2c1-c1ccc(OC)cc1)NC(c1ccccc1)NC3=O (configuration not stated),"inconclusive: 18.4 µM [inhibitor, single point]",–
COC(=O)CSc1ccc(C#N)c(SCC(=O)OC)c1,inactive,–
COC(=O)CN1C(=O)CSc2ccc(S(=O)(=O)Nc3ccc(C)c(Cl)c3)cc21,"inconclusive: 20.6 µM [inhibitor, single point]",–
CCOC(=O)c1c(-c2ccc(OC)cc2)csc1NC(=O)CSc1ccccc1,–,inconclusive: -36.9% [inhibitor]
COc1cccc(NC(=O)CSc2nnnn2C2CCCC2)c1,inactive,–
Cc1ccc(-c2csc(Cc3nc(-c4cc5ccccc5oc4=O)cs3)n2)cc1,active: 18.4 µM,–
NCC12CC3CC(C1)CC(c1ccc(Br)cc1)(C3)C2,active: 20.6 µM,–
Cc1nnc(NC(=O)c2cccc(S(=O)(=O)N3CCN(C)CC3)c2)s1,inactive,–
Cc1ccsc1C1CC(=O)Nc2ccccc2S1 (configuration not stated),"inconclusive: 14.6 µM [inhibitor, partial curve]",–
CCOc1ccc2nc(NC3=NC(C)(C)C=C(C)N3)nc(C)c2c1,"inconclusive: 20.6 µM [inhibitor, single point]",–
COc1ccc(OCC(=O)NNC(=S)NC(=O)c2ccc(Br)o2)cc1,"inconclusive: 29.1 µM [inhibitor, single point]",–

SMILES,Potency,"activity change, negative = growth inhibition"
NC(=O)[C@@H]1CCOc2c(F)cc([N+](=O)[O-])cc2C(=O)N[C@@H](CO)C(=O)NCC(=O)N1,inactive,–
CCCC(=O)N1CCN(c2nc(CC(C)C)c3c(c2C#N)CCC3)CC1,"inconclusive: 18.4 µM [inhibitor, single point]",–
COc1ccccc1C1CN(Cc2c(O)cccc2OC)Cc2ccccc2O1 (configuration not stated),–,inactive: 5.63% [at 9.04 µM]
O=C(NC1CCCCCC1)C1CCCN(S(=O)(=O)c2cnc[nH]2)C1 (configuration not stated),inactive,–
CNC(=S)N/N=C(\C)c1ccccc1,active: 7.31 µM,–
CCn1c(SCC(=O)Nc2cccc(C(C)=O)c2)nnc1C(C)C,inactive,–
CN1c2ccccc2N(C)C1c1c(O)ccc2ccccc12,"inconclusive: 4.47 µM [inhibitor, single point]",–
CCCCCc1ccc(-c2cn(Cc3cccc(OC)c3)nn2)cc1,"inconclusive: 25.1 µM [inhibitor, single point] and inconclusive: 29.1 µM [inhibitor, single point]",–
O=C(Nc1ccccc1C(=O)N1CCCCC1)c1nsc2ccccc12,"inconclusive: 29.1 µM [inhibitor, single point]",–
CS(=O)(=O)c1ccc2nc(NC(=O)c3ccc(S(=O)(=O)NCC4CCCO4)cc3)sc2c1 (configuration not stated),"inconclusive: 29.1 µM [inhibitor, single point]",–
CCOC(=O)[C@]12CCCC=C1N(Cc1cccc3ccccc13)C(=O)[C@H](CC(=O)NCc1ccc(OC)c(OC)c1)C2,"inconclusive: 23.1 µM [inhibitor, single point]",–
O=C(NCCCO)C(=O)Nc1ccc2c(c1)N(S(=O)(=O)c1cccs1)CCC2,"inconclusive: 14.6 µM [inhibitor, partial curve, poor fit]",–
COc1ccc(NC(=O)c2cccnc2SC)cc1S(=O)(=O)N1CCCCC1,inactive,–
O=C(Nc1cccc(Br)c1)c1cc(=O)c2ccccc2o1,"inconclusive: 0.731 µM [inhibitor, single point]",–
N#Cc1cccnc1N1CCN(C(=O)c2cccs2)CC1,inactive,–
O=S(=O)(NC1CCCCCCC1)c1ccccc1F,"inconclusive: 23.1 µM [inhibitor, single point]",–
O=C1COc2ccc(S(=O)(=O)N3CCN(c4cccc(Cl)c4)CC3)cc2N1,inactive,–
CCOC(=O)N1CCC(NC(=O)C2CCC(CNS(=O)(=O)c3ccc(OC)cc3)CC2)CC1 (configuration not stated),"inconclusive: 29.1 µM [inhibitor, single point]",–
COc1ccc(C2c3ccc4ccccc4c3Oc3ncn(CCO)c(=N)c32)cc1OC (configuration not stated),active: 23.1 µM,–
Cc1cccc(N(Cc2ccccc2)C(=O)Cc2ccc(S(=O)(=O)N3CCOCC3)s2)c1,"inconclusive: 25.9 µM [inhibitor, single point]",–
Cc1ccc(S(=O)(=O)NC(=O)C2(C)CCN2C(=O)c2ccccc2CCc2ccccc2)cc1 (configuration not stated),inactive,–
O=[N+]([O-])c1ccccc1/C=N/Nc1nc(N2CCCC2)nc(N2CCCC2)n1,"inconclusive: 25.9 µM [inhibitor, single point]",–
Cc1nn(Cc2ccccc2)c(C)c1/C=N/NC(=O)CNc1cccc(C(F)(F)F)c1,inactive,–
